# According to PubChem BioAssay AID686970 (National Center for Advancing Translational Sciences (NCATS), 2013):
# Screen size: about 360,000 compounds; about 6,000 (1.7%) were called active. Inconclusive means that the source gave no clear call. Such entries were picked first, then a sample of the others. The call rests on the fitted dose curve; in most records, active means well fitted cell-killing curve with a large enough effect; inconclusive means small, poorly fitted or top-dose-only effect, or effect the other way; inactive means flat fitted curve, though single readings scatter. No potency is given beside an inconclusive call; the fits are too rough.
# Assay: qHTS for induction of synthetic lethality in tumor cells producing 2HG: qHTS for the HT-1080-NT fibrosarcoma cell line;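 further: NT is the 2HG producing partner of a matched IDH1 knockdown line; nearly all actives have a fitted effect of over 55% in size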;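 on activity, negative = less viability: 0% = DMSO-treated cells and -100% = media-only wells without cells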
# Details: HT-1080-NT fibrosarcoma viability, CellTiter-Glo ATP luminescence, 48 h; activity, negative = less viability: at 46.1 µM (top of the series) unless noted
# Outline: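 Fibrosarcoma NT cells, 750 per well in 5% FBS RPMI, were exposed to compound for 48 hours. Viability: CellTiter-Glo luminescence.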
# Potency means the concentration at half of the fitted maximal effect; tags describe the fitted curve by direction and shape.
Structure (SMILES),Potency,"activity, negative = less viability"
COC(=O)[C@@H]1Cc2c([nH]c3ccccc23)C(C)(C)N1C(=O)CCl,"inconclusive [cytotoxic, full curve, poor fit]",
Cc1nnc(NC(=O)c2ccc3c(c2)C(=O)N(CC2CCCO2)C3=O)s1 (stereo not given),,inactive: 10.2%
N#CCC(CNc1ncc(C(F)(F)F)cc1Cl)OC(=O)c1c(F)cccc1F (stereo not given),"inconclusive [cytotoxic, single point]",
Cc1nn(-c2ccc(F)cc2)c(Cl)c1/C=C(\CC(=O)O)c1nc2ccccc2s1,,inactive: -16.8%
CC1CN(c2nc(Nc3ccccc3F)nc(N)c2[N+](=O)[O-])CC(C)O1 (stereo not given),,inactive: -17.8%
COc1ccc(OCc2cc(C(=O)NCCc3ccccc3)no2)c(Cl)c1,"inconclusive [cytotoxic, partial curve]",
Cc1ccc(OCCCC(=O)Nc2ccc(Br)cc2)cc1,,inactive: 8.41%
COc1ccccc1N=C1SC(C(=O)Nc2cccc(Cl)c2Cl)C(N)=C1C(N)=O (stereo not given),active: 14.6 µM,
O=C(Nc1ccc(Cl)c(Cl)c1)OCc1cncs1,"inconclusive [cytotoxic, single point]",
CN(C)c1nc(N)nc(CSc2nnnn2-c2ccc(Cl)cc2)n1,"inconclusive [cytotoxic, single point]",
CS(=O)(=O)c1[nH]nc(-c2ccccc2Cl)c1C#N,,inactive: 1.48%
N#Cc1cn(CC(=O)N2CCCc3ccccc32)c2ccccc12,,inactive: -9.77%
OCCNCc1cccc(OCc2ccc(Cl)cc2)c1,"inconclusive [cytotoxic, partial curve]",
COc1ccc(OC)c(CN2CCCC(CO)C2)c1 (stereo not given),,inconclusive: -30% [cytotoxic]
CCCn1c(N2CCC(Cc3ccccc3)CC2)nc2c1c(=O)[nH]c(=O)n2C,"inconclusive [cytotoxic, partial curve]",
O=C(/C=C/NNC(=O)c1ccc(Cl)cc1)c1ccccc1,"inconclusive [cytotoxic, single point]",
Cc1ccc(S(=O)(=O)N[C@@H](Cc2ccccc2)C(=O)CCl)cc1,"inconclusive [cytotoxic, single point]",
N#C/C=C(/N)N1CCN(c2ccc(Cl)c(Cl)c2)CC1,,inactive: -4.32%
O=C1c2ccccc2NC(c2ccc(-c3cccc(Cl)c3)o2)N1O (stereo not given),"inconclusive [cytotoxic, single point]",
CC(Nc1ncnc2sccc12)c1ccccc1 (stereo not given),active: 10.3 µM,
CCOc1ccc(CSCCNC(=S)Nc2ccc(OC)cc2)cc1,"inconclusive [cytotoxic, single point]",
COc1ccc(C2NC(=O)NC(C)=C2C(=O)OCC2CCCCC2)cc1OC (stereo not given),,inactive: -12.9%
Cc1cccc(NS(=O)(=O)c2cccc(C(=O)N3CCCCCCC3)c2)c1,,inactive: -8.38%
CN(C)c1ccccc1C(=O)c1ccccc1N(C)C,"inconclusive [cytotoxic, full curve]",
CCN(CC)c1ncnc2scc(C3COc4ccccc4O3)c12 (stereo not given),"inconclusive [cytotoxic, single point]",

Structure (SMILES),Potency,"activity, negative = less viability"
C=CC[C@@H](CC(=O)N[C@@H](CO)Cc1ccccc1)C(=O)N[C@@H](COC(=O)[C@H](CC=C)CC(=O)OC(C)(C)C)Cc1c[nH]c2ccccc12,,inactive: -18.9%
COc1ccc(CNC(=O)Nc2cccc(C)c2)cc1,"inconclusive [rising, partial curve]",
O=C(N/N=C/c1ccc(Cl)c([N+](=O)[O-])c1)c1cc(-c2ccc3c4c(cccc24)CC3)n[nH]1,active: 5.17 µM,
COc1ccc(C(=O)c2ccc(C)cc2)c(OC)c1OC,"inconclusive [cytotoxic, single point]",
CCC(CO)Oc1cc(NCc2ccc(C)cc2)c2ncn(C(C)C)c2c1 (stereo not given),,inactive: -10.7%
N#Cc1ccc(-c2csc(NNC(=O)c3ccc(Br)cc3)n2)cc1,active: 8.2 µM,
O=C1OC[C@@H]2CCCN2C(=O)[C@H](CC(=O)N(CCO)Cc2ccccc2)C/C=C\CC[C@H]1Cc1ccc(F)cc1,,inactive: -1.24%
CC(CC(=O)Nc1ccc2c(c1)c(=O)n(C)n2-c1ccccc1)c1ccccc1 (stereo not given),active: 3.66 µM,
C=C(C)C1CC=C(C)/C(=N\NC(=O)CCc2ccccc2)C1 (stereo not given),,inactive: 24.6%
CC(=O)C[C@H](O)CC(=O)[C@H]1OC(=O)CCCCCCCc2ccccc21,,inactive: 0.877%
CN(C)CCNC(=O)c1cccc(-c2cnc3c(NC=O)cc(-c4cccs4)cn23)c1,"inconclusive [cytotoxic, single point]",
O=C(CCc1ccc(Oc2cc([N+](=O)[O-])cc([N+](=O)[O-])c2)cc1)N1CCCCCC1,,inactive: -13.3%
CC(C)n1c(SCC(=O)N2c3ccccc3Sc3ccccc32)nc2c1c(=O)n(C)c(=O)n2C,,inactive: -6.24%
CC(C)C(=O)Nc1ccc(-c2ccc3nncn3n2)cc1,"inconclusive [rising, partial curve]",
Cc1c(CN2CCC(CO)(CCOc3ccccc3)CC2)[nH]c2c(Cl)cccc12,active: 20.6 µM,
CCc1ccc2c(c1)NC(=O)C2(C)Cc1ccccc1Cl (stereo not given),"inconclusive [cytotoxic, single point]",
COc1ccc(NC(=O)/C(Cl)=C(/Cl)S(=O)Cc2ccc(Cl)cc2)cn1 (stereo not given),active: 1.3 µM,
Cc1ccc(CCNC(=O)CCc2nc3ccccc3[nH]2)cc1,,inactive: 4.69%
Cc1cc(C(=O)CN2C(=O)C(=O)N(Cc3ccccc3)C2=O)c(C)n1-c1ccc2c(c1)OCCO2,"inconclusive [cytotoxic, single point]",
CN1C(=O)/C(=C\c2ccncc2)SC1=Nc1ccccc1,,inconclusive: -30.1% [cytotoxic]
COc1ccc(N/C=C/C(=O)C(C)(C)C)cc1,"inconclusive [cytotoxic, partial curve]",
COC(=O)CNC(=O)Cc1c(F)cccc1Cl,,inactive: -4.79%
CC1CCCN(c2nc(N(C)c3ccccc3)nc(N)c2[N+](=O)[O-])C1 (stereo not given),"inconclusive [cytotoxic, partial curve]",
O=C(COc1ccccc1-c1ccccc1)N/N=C/c1cccc2ccccc12,active: 1.3 µM,
CC1(C(=O)NC2CCCC2)CCC(=O)N1C1CCN(Cc2ccccc2)CC1 (stereo not given),"inconclusive [rising, single point]",

Structure (SMILES),Potency,"activity, negative = less viability"
CC(C(=O)N1CCCCCC1)c1ccc([N+](=O)[O-])cc1 (stereo not given),,inactive: -4.81%
Cc1cccn2c(NC(=O)c3ccccc3F)c(-c3ccccc3)nc12,,inactive: 0.999%
CC(C)n1nc(C(=O)OCC(=O)c2c[nH]c3ccccc23)c2ccccc2c1=O,"inconclusive [cytotoxic, single point]",
CCc1n[nH]c(=S)n1/N=C/c1cc(Br)c(OC)cc1OC,,inactive: -3.3%
Cc1ccc(-n2cc(-c3ccccc3)c3c(N4CCOCC4)ncnc32)cc1,"inconclusive [cytotoxic, partial curve]",
N#Cc1ccc[n+](CC(=O)c2ccc(NC(=O)c3ccccc3)cc2)c1,,inactive: 4.94%
O=C(C1=C(O)C(=O)N(c2nc3ccc(Cl)cc3s2)C1c1ccco1)c1ccco1 (stereo not given),,inactive: -1.57%
COc1cc(NC(=O)Nc2nc(C(N)C(C)C)cs2)cc(OC)c1OC (stereo not given),active: 16.4 µM,
CC(C)(C)S(=O)(=O)N1C[C@@H]2CC/C=C\C/C=C\2[C@H]1CCO,,inactive: 7.41%
COc1ccc(NC(=O)/C(Cl)=C(/Cl)S(=O)Cc2ccccc2)cn1 (stereo not given),active: 5.8 µM,
CC(C)[C@@H]1Cc2[nH]n(C)c(=O)c2[C@H](c2ccc(F)cc2)O1,,inactive: 16.3%
c1ccc(CCn2c3ccccc3c3nnc(SCc4ccc5nonc5c4)nc32)cc1,"inconclusive [cytotoxic, single point]",
COc1ccccc1NC(=S)NC(=O)C(C)C,"inconclusive [cytotoxic, single point]",
C[C@@H]1Cn2cnc(C(=O)Nc3cccc(Cl)c3)c2C(=O)N1,,inactive: 4.64%
NS(=O)(=O)c1ccc(CNC(=S)Nc2ccc(Cl)c(Cl)c2)cc1,"inconclusive [cytotoxic, single point]",
CN(C(=O)c1cccc(NC(=O)Cc2ccc(NC(=O)C3CCCN(C(=O)c4ccccc4)C3)cc2)c1)C1CCCC1 (stereo not given),,inactive: 7.71%
COC(=O)[C@@]12C[C@@H](CC(=O)NCCc3ccccc3OC)C(=O)N(Cc3cccc4ccccc34)C1=CCC(C)(C)C2,"inconclusive [cytotoxic, single point]",
O=C1CSc2ccc(S(=O)(=O)N3CCN(c4ccccc4F)CC3)cc2N1,"inconclusive [cytotoxic, single point]",
O=C(NC(c1ccccc1)c1ccc2ccccc2n1)C1CCN(CCOc2ccc(Cl)cc2Cl)CC1 (stereo not given),"inconclusive [cytotoxic, single point]",
COC(=O)c1ccc2nc(-c3ccc(OC)c(OC)c3)c(Cc3ccccc3)n2c1,"inconclusive [cytotoxic, single point]",
COc1cc(/C=C/C(=O)OCC(=O)N2c3ccccc3NC(=O)C2(C)C)cc(OC)c1OC,"inconclusive [cytotoxic, single point]",
Clc1ccc2c(N/N=C/c3ccc(Br)cc3)ccnc2c1,"inconclusive [cytotoxic, single point]",
O=C(C1CCC(=O)N(C2CCCCCC2)C1)N1CCN(c2ccccc2Cl)CC1 (stereo not given),"inconclusive [cytotoxic, single point]",
Cc1ccc(S(=O)(=O)Nc2ccc3cc([N+](=O)[O-])ccc3c2[N+](=O)[O-])cc1,active: 2.59 µM,
CCCCOCCCNC(=O)C[C@@H]1C[C@@]2(C(=O)OC)CCCCC=C2N(Cc2cccc3ccccc23)C1=O,"inconclusive [cytotoxic, single point]",
